Laboratory results taken from PMC7156261 (Journal of medicinal chemistry, 2019).

Molecular target: TEM-1 β-lactamase R164S (Escherichia coli, UniProt P62593, R162S)
Assay: DSF shift in Tm after incubation with moxalactam, R164S
Type: binding
Details: R164S (printed R163S), 100-fold molar excess moxalactam

For `CO[C@@]1(NC(=O)[C@H](C(=O)O)c2ccc(O)cc2)C(=O)N2C(C(=O)O)=C(CSc3nnnn3C)CO[C@@H]21` [moxalactam], the “destabilization (lowering of Tm)” value was 3.3 °C.
